The other results are listed elsewhere or left out. These are further read-outs of the screen, such as a control signal, another cell line or another target. No call is given for them. For some of these results: The list favours compounds with an active or inconclusive main result. For some of these results: The note in brackets gives the kind of curve behind each potency; many fits are weak.

Broadly, the AC50 is the concentration at which the activity in the assay is half-maximal.
Tags tell the direction and shape of the fitted curve.

A short description of one assay: qHTS drug screen for cell cycle checkpoint inhibitors in PARPi-resistant BRCA-mutant ovarian cancer cell lines. (AID 1963452). Particulars: PEO1/OlaR viability, CellTiter-Glo luminescence, 96 h; measured here: PEO4 viability. The procedure, abridged:
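PEO1, PEO4 and PEO1/OlaR ovarian cancer cells, 600 per well, exposed 96 h at 37C to a dilution series. Viability read by CellTiter-Glo luminescence, normalized to DMSO and empty wells; activity summarized as Z-AUC.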
(In qHTS, concentration-response curves come from the screen itself.)
Turning to `Clc1ccccc1C(c1ccccc1)(c1ccccc1)n1ccnc1`, the AC50 was 15.5 µM [falling, single point].
In the case of `CN(C)CCC=C1c2ccccc2C=Cc2ccccc21`, the AC50 is 13.8 µM [falling, single point].
Turning to `COc1ccc(CCN(C)CCCOc2ccc(S(=O)(=O)c3[nH]c4ccccc4c3C(C)C)cc2)cc1OC`, the AC50 is 13.8 µM [falling, single point].
Regarding `NC(=O)c1cccc(N)c1`, the AC50 was 24.5 µM [falling, single point].
On the same count and under the same terms, for `NC(CO)C(=O)NNCc1ccc(O)c(O)c1O` (configuration not stated) the value was 13.8 µM [falling, partial curve].
Still for that read-out and setting: for `COc1cccc(-c2cc(=O)c3ccccc3o2)c1N` the value was 21.9 µM [falling, single point]; for `CC(C)COCC(CN(Cc1ccccc1)c1ccccc1)N1CCCC1` (configuration not stated), 12.3 µM [falling, partial curve].

A short description of a further assay: qHTS for identification of novel therapeutic agents for treatment of microphthalmiaassociated transcription factor (MiT) renal cell carcinoma (RCC) (AID 1963991). Particulars: TFE3-RCC UOK109 viability, CellTiter-Glo, 48 h; measured here: UOK109 Z-AUC; stronger effect = lower value. The gist of the method: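 Viability of three TFE3-fusion renal carcinoma lines measured by CellTiter-Glo after 48 h treatment with each of 1912 compounds at 11 concentrations. Responses scaled between DMSO (100%) and empty wells (0%) before curve fitting.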
Take `CC(C)NCC(O)COc1ccc(COCCOC(C)C)cc1` (configuration not stated): the z-score came out at 0.245.
The same measure, in the same setting: the same measure for `CC1COc2c(N3CCN(C)CC3)c(F)cc3c(=O)c(C(=O)O)cn1c23` (configuration not stated): 0.0527.
On the same count and under the same terms, for `Cc1[nH]c(=O)c(C#N)cc1-c1ccncc1` the value was -0.411.
Same read-out and setting: for `Cc1cccc(CN2CCN(C(c3ccccc3)c3ccc(Cl)cc3)CC2)c1` (configuration not stated) the value was 0.747; for `Clc1ccccc1C(c1ccccc1)(c1ccccc1)n1ccnc1`, 0.174; for `CCN(CC)CCCC(C)Nc1ccnc2cc(Cl)ccc12` (configuration not stated), -0.689.
As for `CCC1(c2ccccc2)C(=O)NCNC1=O`, the z-score is -0.0287.
Same read-out and setting: the same measure for `CN(C)CCC=C1c2ccccc2C=Cc2ccccc21`: 0.635; for `NC(=NCc1ccccc1)NC(=O)c1nc(Cl)c(N)nc1N`: 0.211; for `Nc1nc(OCc2ccccc2)c2[nH]cnc2n1`: 0.513.
`COc1ccc(CCN(C)CCCOc2ccc(S(=O)(=O)c3[nH]c4ccccc4c3C(C)C)cc2)cc1OC` had a z-score of 0.785.
Molecule `NC(=O)c1cccc(N)c1` returned a z-score of -0.216.
On the same count and under the same terms, the same measure for `CC(=O)Oc1ccccc1C(=O)O`: 0.817; for `COc1cccc(-c2cc(=O)c3ccccc3o2)c1N`: -0.599.
On the same count and under the same terms, for `CC(COc1ccccc1)N(CCCl)Cc1ccccc1` (configuration not stated) the value was 0.496.

Still in this assay, the particulars now being: TFE3-RCC viability, CellTiter-Glo, 48 h; measured here: UOK124 Z-AUC; stronger effect = lower value.
The molecule `CC(C)NCC(O)COc1ccc(COCCOC(C)C)cc1` (configuration not stated) returned a z-score of 0.116.
On the same count and under the same terms, for `CC1COc2c(N3CCN(C)CC3)c(F)cc3c(=O)c(C(=O)O)cn1c23` (configuration not stated) the value was 0.65.
The same measure, in the same setting: the same measure for `Cc1[nH]c(=O)c(C#N)cc1-c1ccncc1`: 0.863; for `Cc1cccc(CN2CCN(C(c3ccccc3)c3ccc(Cl)cc3)CC2)c1` (configuration not stated): 0.338; for `Clc1ccccc1C(c1ccccc1)(c1ccccc1)n1ccnc1`: 0.78.
The molecule `CCN(CC)CCCC(C)Nc1ccnc2cc(Cl)ccc12` (configuration not stated) displayed a z-score of 0.768.
`CCC1(c2ccccc2)C(=O)NCNC1=O` yielded a z-score of 0.998.
Molecule `CN(C)CCC=C1c2ccccc2C=Cc2ccccc21` registered a z-score of 0.08.
As to `NC(=NCc1ccccc1)NC(=O)c1nc(Cl)c(N)nc1N`, the z-score was 0.668.
As for `Nc1nc(OCc2ccccc2)c2[nH]cnc2n1`, the z-score stood at 1.17.
The same measure, in the same setting: the same measure for `COc1ccc(CCN(C)CCCOc2ccc(S(=O)(=O)c3[nH]c4ccccc4c3C(C)C)cc2)cc1OC`: 0.509.
Still for that read-out and setting: the same measure for `NC(=O)c1cccc(N)c1`: 0.0823; for `CC(=O)Oc1ccccc1C(=O)O`: 0.546; for `COc1cccc(-c2cc(=O)c3ccccc3o2)c1N`: 0.3.
The same measure, in the same setting: the same measure for `CC(COc1ccccc1)N(CCCl)Cc1ccccc1` (configuration not stated): 0.687.

For the origin of these results see PubChem BioAssay (NCATS).
